The values below come from the RNAGym collection of RNA variant scans (doi:10.1093/nar/gkz1192).

The source gives no read counts; variants with many changes may rest on few reads.

B1: CPEB3 Ribozyme (parent)
chain: UAACAGGGGGCCACAGCAGAAGCGUUCACGUCGCAGCCCCUGUCAGAUUCUGGUGAAUCUGCGAAUUCUGCUGUAUAUCUC

In the series the parent is B1. In words: self-cleavage, relative activity (ratio to wild type); higher = more cleavage; in vitro, sequencing. A digest of the protocol: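 CPEB3 self-cleaving ribozyme mutant libraries were made by rounds of error-prone PCR, barcoded, and transcribed in vitro with T7 RNA polymerase for 5 hours at 37°C. Cleavage occurred during transcription and a 15 min DNase I step before EDTA stop. RNAs were reverse transcribed with template switching and Illumina-sequenced, with DNA sequencing mapping barcodes to variants. Relative activity is the variant's cleaved/total read fraction divided by wild type's (minimum 5 reads), averaged across three batches.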
As to UAGCAGGGGACCACAGCAGAAGCGUUCACGUCGCAGCCCCUGUCAGAUUCCGGCGGAUCAGCGAAUUCUCCUGUAUAUCUC [A3G G10A U51C U54C A56G U60A G70C], the self-cleavage is 0.25.
As for UAGCAGGGGGCCACAGCAGAAGCGUUCACGUCACAGCCCCUGUCAGAUUCUGGUGAAUCUGCGUAUACUGCUGUAUAUCCC [A3G G33A A64U U67A U80C], the figure is 0.14; as for UAGCAGGGGGCCACAGCAGAAGCGUUCACGUCGCAACCCCUGUCAGAUUCUGGUGAAUCUGCGAAUUCCGCUGUAUAUCUC [A3G G36A U69C], 0.13.
As for UAGCAGGGGGCCACAGCAGAAGCUUUCACGUCGCAGCCCCUGUCAGAUUCUGGUGAAUCUGCGAAUUCCGCUGUAUAUCUC [A3G G24U U69C], the figure is 0.16; as for UAGCAGGGGGCCACAGCAGAAGCGUUCACAUCGCAGCCCCUGUCAGGUUCUGGUGAACCUGCGGAUUCUGCUGUAUAUCUC [A3G G30A A47G U58C A64G], 0.66.
The result for UAGCAGGGGACCACAGCAGAAGCGUUCACGCCACAGCCCCUGACAGAUUCUGGUGAAUCUGCGAACUCUGCUGUAUAUCUC [A3G G10A U31C G33A U43A U66C] reads 0.08; that for UAGCAGGGGGCCACAGCAAAAGCGUUCACGUCGCAGCCCCUGUCAGACUCUGGUGAAUCUGCGAAUUCUGCUGUAUAUCUC [A3G G19A U48C], 0.43.
As for UAGCAGGGGACCACAGCAGAUGCGUUCACGUCGCAGCCCCUGGCAGACUCUGGUGAAUUUGCGAAUUCUGCUGUAUAUCUC [A3G G10A A21U U43G U48C C59U], the self-cleavage turned out to be 0.29.
The result for UAGCAGGGGGCCACAACAGAAGCGUUCACGUCGCAGCCCCUGUCAGAUUCUAGUCAAUCUGCGAAUUCUGCUGUGUAUCCC [A3G G16A G52A G55C A75G U80C] reads 0.28; that for UAGCAGGGUGUCACAGCCGAAGCGUUCACGUCGCAGCCCCUGUCAGAUUCUGGUGAAUCUGCGAAUUCUGCUGUAUACCUC [A3G G9U C11U A18C U78C], 0.06; that for UAGCAGGGGGCCACAGCAGAAGCGUUCACGUCGCAACCCCUGUCAGAUUCUGGUGAAUCUGCGAGUUCUGCUGUAUAUCUC [A3G G36A A65G], 0.39.
For the variant UAGCAGGGUGCCACAGCAGAAGCGUUCACGUCGCAGCCCCUGUCAGAUUCUGGUGAAUCUGCGAAUUCUACUGUAUAUCUC [A3G G9U G70A], the self-cleavage came out at 0.1.
Take UAGCAGGGGACCACAGCAGAAGCGUGCACGUCGCAGCCCCUGUCAGAUUCUGGUGGAUCUGCGAAUACUGCUGUAUAUCUC [A3G G10A U26G A56G U67A]: the self-cleavage worked out at 0.43.
The result for UAGCAGGGGGCCACAGCAGAAGCAUUCACGUCGCGGCCCCUGUCGGAUUCUGGUGAAUCUGCGGAUUCUGCUGUAUAUCUC [A3G G24A A35G A45G A64G] reads 0.31; that for UAGCAGGGGACCACAGCUGAAGCGUUCACGUCGCAGCCCCUGUCAGAUUCUCGUGAAUCUGCGAAUUCUGCAGUUUGUCUC [A3G G10A A18U G52C U72A A75U A77G], 0.04.
The result for UAGCAGGGGGCCACAGCAGAACCGUCCACGUCGCAGCCCCUGUCAGAUUCUGGUGAAUCAGCGAAAUCUGCUGUAUGUCUC [A3G G22C U26C U60A U66A A77G] reads 0.25; that for UAGCAGGGGGCCACAGCAGAAGCGUUCACGUCGCAACCCCUGUCAGAUUCUGGUGAAUCUGCGAACUCUGCUGUAUGUCUC [A3G G36A U66C A77G], 0.06.
The result for UAGCAGGGGUCCACGGCAGAAGCGUUCACGUCGCAGCCCCUGUCAGAUUCUGGUGAAUCUGCGUACUCUGCUGUAUAUCUC [A3G G10U A15G A64U U66C] reads 0.04.
Consider UAGCAGGGGGCCACAGCAGAAGCAUUCACGUCGCAGCCCCUGUCGGAUUCUGGUGUAUCUGCGAAUUCUGCUGUAUAUCUC [A3G G24A A45G A56U], for which the self-cleavage was 0.1.
Take UAGCAGGGGGCCACAGCAGAAGCGUUCACGUCCCAGCCCCUGUCAGAUUCUUGUGAAUCUGCGAAUUCUGCUGUAUAUCUC [A3G G33C G52U]: the self-cleavage was found to be 0.36.
Consider UAGCAGGGUGCCACAGCAGAAGCGUUCACGUCGCAGCCCCUGUCAGAUUCCGGUGAAUCUGCGAAUCCUGCUGUAUAUCUC [A3G G9U U51C U67C], for which the self-cleavage was 0.22.
For UAGCAGGGGGCCACAACAGAAGCGUUCACGUCGCGGCCCCUGUCAGACUCUGGUGAAUCUGCGAAUUCUGCUGUAAACCUC [A3G G16A A35G U48C U76A U78C], the self-cleavage came out at 0.41.
The result for UAGCAGGGGGCCACAGCAGAAGCGUUCACGUCUCAGUCCCUGUCAGAUUCUGGUGAAUCUGCGAAUUCUGCUGUAUAUCUC [A3G G33U C37U] reads 0.42.
As for UAGCAGGGGGCCACAGCAGAAGCAUUCACGUCGCAGCCCCAGUCAGAUUCUGGUGAGUCUGCGAAUUCUGCUGUAUAUCUC [A3G G24A U41A A57G], the figure is 0.28.
Consider UAGCAGGGGACCACAGCAGAUGCGUUCACGUCGCAGCCCCUGUCAGAUUCUGGUGAAUCUGCGAACUCUGCAGUAUAUCUC [A3G G10A A21U U66C U72A], for which the self-cleavage amounted to 0.19.
The result for UAGCAGGGGGCCACAACGGAAGCGUUCACGUCGCAGCCCCUGUCAGAUUCUGGUGAGUCAGCGAAUUCUGCUGUAUAUCUC [A3G G16A A18G A57G U60A] reads 0.18; that for UAGCAGGGGACCACAGCAGAAGCGUUCACGUCGCAGCCCCUGUCAGAUUCUGGCGAAUCUGCGAAUUCUGCUGUAUAUCUC [A3G G10A U54C], 0.1.
The result for UAGCAGGGGGCCACAGCACAGGCGUUCACGUCGCAGCCCUUGUCAGAUUCUGGUGAAUCUGCGAAUUCUGCUGUAUAUCUC [A3G G19C A21G C40U] reads 0.06.
As for UAGCAGGGGGCCACAGCAGAAGCGUUCACGUCACAGCCCCUGUCAGAUUCUGGUGAAUCUGCGUAUUCUGCCGUAUAUCCC [A3G G33A A64U U72C U80C], the self-cleavage was found to be 0.08.
UAGCAGGGGGCCACAGCAGAAUCGUUCACGUCGCAGCCCCUGUCAGACUCUGGUGGAGCUGCGAAUUCUGCUGUAUAUCUC [A3G G22U U48C A56G U58G]: the self-cleavage stood at 0.34.
The result for UAGCAGGGGGCCACAGCAGAAGCGUUCACGUCACAGCCCCUGUCAGAUUCUGGUGAAUCCGCGAAUUCUGCUGUAUAUCUC [A3G G33A U60C] reads 0.08; that for UAGCAGGGGGCCACAGCAGAAGCAUUCACGUCGCAGCCCCUGUCAGAUUCUGGUGAAUCUGCGAAUUCUGCGGUAUAUCUC [A3G G24A U72G], 0.36.
As to UAGCAGGGGGCCACAGCAGAAGCGUUCACCUCGCAGCCCCUGUCAGAUUCUGGUGAAUCUGCGAAUUCUUCUGUAUAUCUC [A3G G30C G70U], the self-cleavage was found to be 0.35.
For the variant UAGCAGGGGGCCACAGCAGAAGCGUUCACGUCCCAGCCCCUGUCAGAUUCUGGUGAAUCUGUGUAUUCUGCUGUAUAUCUC [A3G G33C C62U A64U], the self-cleavage came out at 0.13.
